# Data reported in patent publication US20230203052A1, “ACYCLIC CUCURBITURILS, METHODS OF MAKING SAME, AND USES THEREOF” (University of Maryland, College Park, priority 2020, published 2023).
# Values joined by “and” are separate entries in the source; they are usually repeats but may differ in a detail not shown here. Equal values may be shown once.
# Tests used:
# [1] = comparison with 1·19 and 1·20; cited from earlier work
# Hep G2 cells [2] = experiment: MTS (CellTiter 96 AQueous) cell viability assay, Hep G2; type: cell-based, human; conditions: HepG2, 24 h incubation, up to a concentration of 0.3 mM
# Experimental: (§1) To test the Cytotoxicity and Cell Viability of the above compounds we used two different assays: an MTS (CellTiter 96 AQueous Kit®) assay that measures cellular metabolism, and the AK (Toxilight® BioAssay Kit) assay that measures cell death through release of the cytosolic enzyme adenylate kinase into the supernatant. Both assays were performed with two different cell lines. HEK293 and Hep G2 cells, are frequently used in drug toxicity studies. HEK293, a human kidney cell line, is used to evaluate the effect of the drug on the renal system and Hep G2, a human hepatocyte cell line, is used to assess the response of liver cells where drugs are metabolized. The MTS and AK assays for both cell lines were conducted after 24 h of incubation with the compounds at concentrations of 0.01 mM, 0.03 mM, 0.1 mM, 0.3 mM, and 1 mM. Eight technical replicates were designated for untreated cells and four technical replicates were designated for the cells treated with each compound and staurosporine (apoptosis inducer).
# (§2) The collected absorbance and relative luminescence data were normalized to percent cell viability (MTS) and percent cell death (AK) using equations 1 and 2:
# % cell viability=(Abs sample/Average Abs UT)×100 Eq. 1: […]
# Hep G2 cells [3] = experiment: AK (Toxilight) cell death assay, Hep G2; type: cell-based, human; conditions: HepG2, 24 h incubation, up to a concentration of 1 mM
# Experimental: as §1, §2
# % cell death=(RLU samples/Average RLU Distilled water)×100 Eq. 2: […]
# Aqueous solubility = conditions: host 1, water
structure (smiles),measurement,setting,value
"C=CC[N+]1([C@H]2C[C@H]3[C@@H]4CC[C@H]5C[C@H](O)[C@@H](N6CCOCC6)C[C@]5(C)[C@H]4CC[C@]3(C)[C@H]2OC(C)=O)CCCC1 [guest 19, rocuronium]",Affinity (Ka) of M2·guest complex,[1],3.4e+09 M⁻¹
"CC(=O)O[C@H]1C[C@@H]2CC[C@@H]3[C@H](CC[C@@]4(C)[C@H]3C[C@H]([N+]3(C)CCCCC3)[C@@H]4OC(C)=O)[C@@]2(C)C[C@@H]1N1CCCCC1 [guest 20, vecuronium]",Affinity (Ka) of M2·guest complex,[1],1.6e+09 M⁻¹
C[C@]12N3Cc4c(OS(=O)(=O)[O-])ccc(OS(=O)(=O)[O-])c4CN1C(=O)N1CN4C(=O)N5CN6C(=O)N7CN8C(=O)N9Cc%10c(OS(=O)(=O)[O-])ccc(OS(=O)(=O)[O-])c%10CN%10C(=O)N(CN%11C(=O)N(CN%12C(=O)N(CN(C3=O)[C@]12C)[C@@H]4[C@H]%125)[C@@H]6[C@H]%117)[C@]8(C)[C@@]9%10C.[Na+].[Na+].[Na+].[Na+] [host 1],Cell tolerance (cell viability),Hep G2 cells [2],high cell tolerance
same,Cytotoxicity (cell death),Hep G2 cells [3],low cytotoxicity
same,Solubility in water,Aqueous solubility,> 40 mM and 40 mM
